In the antibiotic and cytotoxicity screens of Wong et al. (2023) one finds cytotoxicity call and growth inhibition call data, which are given here for 29 molecules.

Molecules are shown by their SMILES. This is one part of the list.

Experiment [1] relates to HSkMC (human skeletal muscle cells). In words: cytotoxicity call (relative viability < 0.9). Particulars: 10 µM.
Experiment [2] deals with HepG2. The experiment is described as follows: cytotoxicity call (relative viability < 0.9). Particulars: 10 µM.
Experiment [3] relates to S. aureus RN4220. In words: growth inhibition call (relative growth <= 0.2). The note with it: 50 µM.

With `COc1ccc2c3c(n(c2c1)C)[C@@H](CO)N(CC1CCOCC1)C[C@]13CN(C1)C(=O)Cc1cccnc1`, the cytotoxicity call in experiment [1] and in experiment [2] was “inactive” in each case. Further, the growth inhibition call in experiment [3] is “inactive”.

With `C[C@H](CO)N1C[C@H](C)[C@H](CN(C)C(=O)Nc2ccc(N3CCN(C)CC3)cc2)OCc2cn(nn2)CCCC1=O`, the cytotoxicity call in experiment [1] and in experiment [2] was “inactive” in each case. The growth inhibition call in experiment [3] is “inactive”.

For `C[C@H]1CN([C@@H](C)CO)C(=O)c2cccc(NS(=O)(=O)c3cn(C)cn3)c2O[C@@H]1CN(C)Cc1ccc2c(c1)OCO2`, the cytotoxicity call in experiment [1] and in experiment [2] was “inactive” throughout. Further, in experiment [3], the growth inhibition call was “inactive”.

Turning to `CC(=O)N(C)C[C@H]1Oc2ncc(C#CC(C)(C)O)cc2C(=O)N([C@@H](C)CO)C[C@@H]1C`, the cytotoxicity call in experiment [1] and in experiment [2] was “inactive” throughout. In addition, in experiment [3], the growth inhibition call is “inactive”.

As for `CCCCCCCCCC[C@@H](O)[C@H]1C=C[C@@H]2C(=O)N(c3ccccc3)C(=O)[C@@H]2N1Nc1ccc([N+](=O)[O-])cc1`, the cytotoxicity call in experiment [1] was “active”. For the same molecule, the cytotoxicity call in experiment [2] is “inactive”. Further, in experiment [3], the growth inhibition call is “inactive”.

Take `COc1ccc(-c2ccc3c(c2)O[C@H](CN(C)CC2CCOCC2)[C@@H](C)CN([C@@H](C)CO)S3(=O)=O)cc1`: the cytotoxicity call in experiment [1] and in experiment [2] was “inactive” each time. Moreover, the growth inhibition call in experiment [3] is “inactive”.

Take `Nc1c(C(=O)O)cnc2nc(N3CCOCC3)nn12`: the cytotoxicity call in experiment [1] and in experiment [2] was “inactive” each time. Moreover, the growth inhibition call in experiment [3] was “inactive”.

Consider `C[C@@H]1CCCCO[C@@H](CN(C)C(=O)CCC(F)(F)F)[C@@H](C)CN([C@H](C)CO)C(=O)c2cc(NC(=O)NC3CCCCC3)ccc2O1`, for which the cytotoxicity call in experiment [1] and in experiment [2] was “inactive” throughout. In addition, in experiment [3], the growth inhibition call was “inactive”.

In the case of `C[C@@H]1CCCCO[C@H](CN(C)Cc2ccc(Cl)c(Cl)c2)[C@@H](C)CN([C@H](C)CO)C(=O)c2cc(NS(=O)(=O)c3ccc(Cl)cc3)ccc2O1`, the cytotoxicity call in experiment [1] is “inactive”. For the same molecule, the cytotoxicity call in experiment [2] is “active”. Moreover, the growth inhibition call in experiment [3] is “inactive”.

In the case of `C[C@H]1CCCCO[C@@H](CN(C)Cc2ccccc2)[C@@H](C)CN([C@@H](C)CO)C(=O)c2cc(NS(=O)(=O)c3ccccc3)ccc2O1`, the cytotoxicity call in experiment [1] and in experiment [2] was “inactive” throughout. Besides, the growth inhibition call in experiment [3] is “inactive”.

As for `O=C1O[C@@H](c2ccccc2)[C@@H](c2ccccc2)N2[C@@H](c3ccc(O)cc3)[C@]3(C(=O)Nc4ccc(C#CCCO)cc43)[C@@H](C(=O)N3CCCCCCC3)[C@H]12`, the cytotoxicity call in experiment [1] and in experiment [2] was “inactive” each time. In addition, the growth inhibition call in experiment [3] was “inactive”.

Turning to `COc1ccc(COC[C@]23N=C4SCc5ccccc5CN4[C@H](c4ccccc4O2)[C@H]3CO[Si](C)(C)C(C)(C)C)cc1`, the cytotoxicity call in experiment [1] and in experiment [2] was “inactive” in each case. In addition, in experiment [3], the growth inhibition call was “inactive”.

Take `C[C@H](CO)N1C[C@H](C)[C@H](CN(C)S(=O)(=O)c2ccc(F)cc2)Oc2c(NS(=O)(=O)c3cccs3)cccc2C1=O`: the cytotoxicity call in experiment [1] and in experiment [2] was “inactive” throughout. Moreover, in experiment [3], the growth inhibition call was “inactive”.

Regarding `C[C@@H]1CN([C@H](C)CO)C(=O)c2cc(NC(=O)Nc3cccc4ccccc34)ccc2O[C@@H](C)CCCCO[C@@H]1CN(C)CC1CCCCC1`, the cytotoxicity call in experiment [1] and in experiment [2] was “active” throughout. The growth inhibition call in experiment [3] was “inactive”.

On to `C[C@@H]1CCCCO[C@@H](CN(C)C(=O)c2ccccc2)[C@@H](C)CN([C@@H](C)CO)C(=O)c2cc(NC(=O)Nc3cccc4ccccc34)ccc2O1`, for which the cytotoxicity call in experiment [1] and in experiment [2] was “inactive” each time. Besides, the growth inhibition call in experiment [3] is “inactive”.

Consider `C[C@@H]1CN([C@@H](C)CO)C(=O)CCCn2cc(nn2)CO[C@@H]1CN(C)S(=O)(=O)c1ccccc1C#N`, for which the cytotoxicity call in experiment [1] and in experiment [2] was “inactive” each time. Moreover, the growth inhibition call in experiment [3] was “inactive”.

In the case of `Nn1c([C@@H](O)c2ccccc2)n[nH]c1=S`, the cytotoxicity call in experiment [1] and in experiment [2] was “inactive” each time. Further, in experiment [3], the growth inhibition call is “inactive”.

Consider `COc1ccc(CN(C)C[C@@H]2Oc3c(NC(=O)c4ccc(-c5nccs5)cc4)cccc3C(=O)N([C@H](C)CO)C[C@H]2C)cc1`, for which the cytotoxicity call in experiment [1] and in experiment [2] was “active” in each case. Moreover, in experiment [3], the growth inhibition call was “inactive”.

For `C[C@H](O)CC(=O)O`, the cytotoxicity call in experiment [1] and in experiment [2] was “inactive” throughout. For the same molecule, in experiment [3], the growth inhibition call was “inactive”.

On to `N=C(C[n+]1ccccc1)NO`, for which, in experiment [1], the cytotoxicity call was “inactive”. The cytotoxicity call in experiment [2] is “active”. In experiment [3], the growth inhibition call is “inactive”.

Take `COCC#Cc1ccc2c(c1)O[C@@H](CN(C)S(=O)(=O)c1ccc(F)cc1)[C@@H](C)CN([C@@H](C)CO)S2(=O)=O`: the cytotoxicity call in experiment [1] was “active”. Moreover, the cytotoxicity call in experiment [2] is “inactive”. Besides, the growth inhibition call in experiment [3] is “inactive”.

In the case of `C[C@@H]1CCCCO[C@H](CN(C)C(=O)CCCN(C)C)[C@@H](C)CN([C@H](C)CO)C(=O)c2cc(NS(C)(=O)=O)ccc2O1`, the cytotoxicity call in experiment [1] and in experiment [2] was “inactive” each time. Moreover, in experiment [3], the growth inhibition call was “inactive”.

As for `CCN(CC)CCCNC(=O)C1CCNCC1`, the cytotoxicity call in experiment [1] and in experiment [2] was “inactive” in each case. For the same molecule, in experiment [3], the growth inhibition call was “inactive”.

`COCC#Cc1cnc2c(c1)C(=O)N([C@H](C)CO)C[C@@H](C)[C@@H](CN(C)C(=O)CCN1CCCCC1)O2`: the cytotoxicity call in experiment [1] and in experiment [2] was “inactive” throughout. Further, the growth inhibition call in experiment [3] was “inactive”.

`C[C@@H]1CCCCO[C@H](CN(C)C(=O)CCCN(C)C)[C@@H](C)CN([C@H](C)CO)C(=O)c2cc(N(C)C)ccc2O1`: the cytotoxicity call in experiment [1] and in experiment [2] was “inactive” in each case. Also, the growth inhibition call in experiment [3] was “inactive”.

Turning to `COC(=O)[C@@H](C)N(C#N)c1nc(C)nc(C)n1`, the cytotoxicity call in experiment [1] and in experiment [2] was “inactive” in each case. Also, the growth inhibition call in experiment [3] was “inactive”.

With `NCCN1CCC(C(=O)O)CC1`, the cytotoxicity call in experiment [1] and in experiment [2] was “inactive” each time. The growth inhibition call in experiment [3] is “inactive”.

Take `COc1ccc(COC[C@]23N=C4SCc5ccccc5CN4[C@H](c4ccccc4O2)[C@H]3COC(=O)NCCCCCC(=O)NO)cc1`: the cytotoxicity call in experiment [1] and in experiment [2] was “inactive” throughout. For the same molecule, in experiment [3], the growth inhibition call is “inactive”.

As for `COc1ccc(CN(C)C[C@@H]2Oc3c(NC(=O)Nc4ccc(C(F)(F)F)cc4)cccc3C(=O)N([C@@H](C)CO)C[C@@H]2C)cc1`, the cytotoxicity call in experiment [1] and in experiment [2] was “inactive” throughout. The growth inhibition call in experiment [3] was “inactive”.
